# Data from PubChem BioAssay AID1508624 (National Center for Advancing Translational Sciences (NCATS), 2021).
# The whole screen tested about 48,000 compounds, of which about 120 (0.25%) were called active. Roughly 4% stayed inconclusive and do not appear here. Calls follow the shape of the dose curve; as a rule, active = well fitted activation curve with a large enough effect; inconclusive = small, poorly fitted or top-dose-only effect, or another doubt; inactive = no such curve, though single readings can be large or run the other way. This is one part of the list.
# Experiment: Primary qHTS for Identification of Small Molecule Activators of Huntingtin-Antisense Promoter Activity; also: nearly all actives have a fitted effect of over 55% in size
# Conditions: HEK293 HTT-AS promoter firefly luciferase reporter, 24 h; series mostly up to 57.5 µM; activity change, positive = activation: at the top concentration
# In short: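 Luminescence was read after Dual-Glo reagent and a 10 min room-temperature incubation. Values were normalized to vehicle (0% activity) and zero RLU (-100% activity). Reporter HEK293 cells had been exposed to compounds (up to 57.5 uM final) for 24 h.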
# Potency is read from the fitted curve at half-maximal effect.
Structure (SMILES),"activity change, positive = activation",Potency
CC(=O)c1cc(C(=O)Nc2cccc(C)c2)c2ccccn12,inactive: -2.76%,
COc1ccc(-c2nnn3c2nc(N2CCCC(C)C2)c2ccccc23)cc1 (stereo unspecified),inactive: -11.2%,
Cc1ccc(C)c(N(C)C(=O)C2CCN(S(=O)(=O)c3cccc4nsnc34)CC2)c1,inactive: -24%,
COCCNC(=O)CCC(=O)NNc1nc2ccccc2c2nc(-c3ccccc3)nn12,inactive: 3.52%,
Clc1ccccc1-c1nc(Nc2ccccc2)nc2ccc(Br)cc12,inactive: -23.3%,
Cc1ccc(NC(=O)N2CCC(n3c(C)nc4cccnc43)CC2)c(Cl)c1,inactive: -1.67%,
CCOc1ccc(NC(=O)CSc2ncc3c(n2)-c2ccccc2N(C)S3(=O)=O)cc1,inactive: 10.7%,
Cc1ccc(NC(=O)c2cc(S(=O)(=O)N3CCOCC3)c(Cl)cc2Cl)cc1,inactive: -52%,
Cc1cc(C)cc(NC(=O)C2CCN(S(=O)(=O)c3cccc4nonc34)CC2)c1,inactive: -8.68%,
Nc1c2c(nc3ccccc13)CCCC2,inactive,
COc1ccc(CNC(=O)Nc2cn(CC(C)C)c(=O)c3ccccc23)c(OC)c1,inactive: -12%,
CCCCC(CC)COC(=O)C(C#N)=C(c1ccccc1)c1ccccc1 (stereo unspecified),inactive,
CCc1ccc(CNC(=O)c2ccc(CSc3nc4ccncc4n3Cc3ccccc3)cc2)cc1,inactive: -20.5%,
CCC(Oc1ccccc1)C(=O)Nc1nnc(S(=O)(=O)Nc2ccccc2)s1 (stereo unspecified),inactive: -14.9%,
CC(=O)c1ccc(N2CCN(C(=O)C3CCN(S(=O)(=O)c4cccc5nonc45)CC3)CC2)cc1,inactive: -18%,
O=c1c2c3c(sc2nnn1Cc1ccc(Br)cc1)CCCC3,inactive: -13.5%,
O=S(=O)(NCCc1csc(-c2ccc(F)cc2)n1)c1ccc(Cl)cc1,inactive: -44%,
CCOc1ccccc1NC(=O)Cn1c(=O)ccc2cc(S(=O)(=O)N3CCC(C)CC3)ccc21,inactive: -30.3%,
CCOC(=O)c1ccc(NC(=O)CCc2c(C)nc3c(c(C)nn3C)c2C)cc1,inactive: -30%,
CCOC(=O)C1CCN(C(=O)C2COc3ccccc3C2)CC1 (stereo unspecified),inactive: -14.9%,
Cc1ccc(OCCCn2c(C3CC(=O)N(c4cccc(Cl)c4)C3)nc3ccccc32)c(C)c1 (stereo unspecified),inactive: -29.3%,

Structure (SMILES),"activity change, positive = activation",Potency
CC1CCCCN1CCCOC(=O)c1ccc(OC2CCCCC2)cc1 (stereo unspecified),inactive: -15.5%,
O=C(CSc1nccn1Cc1ccc(Cl)cc1)NC1CCCC1,inactive: -15.5%,
Cc1ccc(CN2CCSc3ccc(C(=O)N4CCN(c5cccc(C)c5C)CC4)cc32)cc1,inactive: -13.3%,
COc1ccc(-c2cnc(C)o2)cc1S(=O)(=O)Nc1ccc(C)c(F)c1,inactive: -42.5%,
O=C(c1cc2ccccc2oc1=O)N(Cc1cccc(Cl)c1)C1CCS(=O)(=O)C1 (stereo unspecified),inactive: -5.63%,
CCOC(=O)c1ccc(NC(=O)CC2C(=O)N(c3ccccc3)C(=O)N2Cc2cccs2)cc1 (stereo unspecified),inactive: -8.82%,
COc1ccc(N2CCN(CC(O)COc3ccc(C(C)(C)C)cc3)CC2)cc1 (stereo unspecified),"inactive: 3.72% [at 11.5 µM, percent change from vehicle, -100% = no light]",
Cc1ccc(S(=O)(=O)c2[nH]c(-c3ccccc3)nc2SCC(=O)O)cc1,inactive: -15.7%,
CCOc1ccc(CNC(=O)c2ccc3nc(Cc4ccc(OC)cc4)oc3c2)cc1OC,inactive: -22.2%,
CCN(C(=O)Cc1c(C(=O)O)[nH]c2ccccc12)c1ccc(OC)cc1,inactive: -6.95%,
Cc1ccc(Cl)cc1NC(=O)c1ccc(-c2nc(CSc3ccccc3)c(C)o2)cc1,inactive: -32.5%,
CCc1ccc(CN(C(=O)c2nc(SC)ncc2Cl)C2CCS(=O)(=O)C2)cc1 (stereo unspecified),inactive: -17.9%,
CCC(=O)N1c2ccccc2CC1C(=O)N1CCN(c2ccccc2)CC1 (stereo unspecified),inactive: -10.7%,
CC(C)Cc1nn2c(=O)cc(COC(=O)c3ccc(NC(=O)c4cccs4)cc3)nc2s1,inactive: 2.9%,
O=C1NC(=O)[C@@H](c2cn3c4c(cccc24)CCC3)[C@H]1c1c[nH]c2ccccc12,inactive: -43.2%,
Cc1ccc(OCc2nc3ccccc3n2CC(C)C)cc1,inactive: 20.3%,
COc1ccc(CCNC(=O)CCn2c(=O)c3cccn3c3ccc(F)cc32)c(OC)c1OC,inactive: -19%,
CCOc1ccccc1CNC(=O)Nc1cn(CC(C)C)c(=O)c2ccccc12,inactive: -18.4%,
CC(Oc1ccccc1)C(=O)Nc1nc2ccc(S(N)(=O)=O)cc2s1 (stereo unspecified),inactive: -9.57%,
Cc1cc2c(cc1S(=O)(=O)NCc1ccc(N(C)C)cc1)OCC(=O)N2,inactive: -23.4%,
COc1ccc(N(CC(=O)NC(C)c2ccccc2)S(=O)(=O)c2c(C)noc2C)cc1 (stereo unspecified),inactive: -12%,

Structure (SMILES),"activity change, positive = activation",Potency
CCCN(C(=O)c1cc2c(s1)-c1ccccc1SC2)c1ccccc1F,inactive: -28%,
CC1(c2ccc(Cl)cc2)CC(C)(C)N(C(=O)c2ccccc2)c2ccccc21 (stereo unspecified),inactive: -39.8%,
Cc1ccc(CN2CCC(CNc3ncnc4onc(-c5ccc(Cl)cc5)c34)CC2)cc1,inactive: -14.5%,
COc1cccc(-n2ccnc2SCC(=O)Nc2cccc(C)c2C)c1,inactive: -16.1%,
CCc1ccc(NC(=O)Cn2cnc3sc(C)c(S(=O)(=O)N4CCC(C)CC4)c3c2=O)cc1,inactive: -1.39%,
CCCC(=O)NCC(c1ccc2c(c1)OCO2)N1CCN(c2ccc(F)cc2)CC1 (stereo unspecified),inactive: -18.7%,
COc1ccc(-n2ncc(C(=O)NCc3ccccc3)c2C2CCN(C(=O)OC(C)(C)C)CC2)cc1,inactive: -20.5%,
COc1ccc(-c2nc3c(C#N)c[nH]n3c2NC2CCCCC2)c(OC)c1,inactive: -16.2%,
Cc1ccc(NC(=O)CN2CCCN(Cc3cc(C)ccc3C)S2(=O)=O)c(Cl)c1,inactive: -38%,
COc1cccc(N2CCN(C(=O)C3CCC(CNS(=O)(=O)c4ccc(Br)s4)CC3)CC2)c1 (stereo unspecified),inactive: -41.4%,
COCCCNC(=O)Cn1c(=O)n(-c2ccc(C)cc2)c(=O)c2c1c1cc(C)ccc1n2C,inactive: -6.6%,
O=c1cc(-c2ccccc2)oc2cc(O)cc(O)c12,,active: 24.3 µM
CCS(=O)(=O)N1CC(=O)N(c2ccccc2C)C(C)(C(=O)NC2CCCCC2)C1 (stereo unspecified),inactive: -13.9%,
COc1ccc(NC(=O)CSc2nnc(-c3ccc(C)cc3)o2)cc1,inactive: -7.01%,
Cc1ccc(Cl)cc1N1CCN(C(=O)c2cn(C3CCCCC3)c(=O)c3c2c2ccccc2n3C)CC1,inactive: -18.5%,
CN(C)c1ccc(C(CNC(=O)COc2ccc(Cl)cc2)N2CCOCC2)cc1 (stereo unspecified),inactive: -4.48%,
CCOC(=O)c1noc2ncnc(N3CCN(c4ccccc4OC)CC3)c12,inactive: -3.41%,
COc1cc(C2NC(=O)NC(C)=C2C(=O)Nc2cc(C)cc(C)c2)ccc1O (stereo unspecified),inactive: -4.04%,
COc1ccc2c(c1)c(C1=C(c3c[nH]c4ccccc34)C(=O)NC1=O)cn2CCCN(C)C,inactive: -7.92%,
